According to the supplement of paper PMC11417369:
The list shows a part of the results.

What follows are sequences tested on PfAP2-HC AP2 domain (GST-tagged) (assay: gcPBM binding intensity (ln(normalized median fluorescence intensity)); higher = stronger DNA binding).
In short: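 Each value is the highest Masliner-normalised natural-log median intensity across replicate spots of either orientation of a probe. The probes were primer-extended double-stranded 36-bp intergenic genomic sequences on an Agilent 4 × 180k array, alongside negative controls, exposed for 1 h to GST-tagged P. falciparum DNA-binding domains expressed in E. coli. Bound protein was picked up with Alexa488 anti-GST antibody and scanned at 488 nm.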

| Sequence | gcPBM binding intensity (ln) |
| --- | --- |
| ACAATTCCCGTATGATGTACTTTTTTCCACTTTTTC [XGTACX_site1811] | 9.94 |
| TACTAACATAAAGACACACACCACATAAAATAAATA [CACACA_site7663] | 10.3 |
| CTTATTTTGTTATAAGTGCATTTTTTAAAATTTCTT | 9.55 |
| ATAGTATACAGACACACACACACACCGATATATATA [CACACA_site8511] | 10.7 |
| GGAAGAAAACTTAGGTGTACATATAAAACGATATAA [XGTACX_site3118] | 9.67 |
| TATGAACACAGACACACACACAAAAAAAAAAAAAAA [CACACA_site7037] | 9.9 |
| ATTATCTTATGTTATTTATTTGTCCCACATTTGTTA [TGCATGCA_negctrl_site402] | 9.73 |
| CATACACCCAGACACACACACATATATATATATATA [CACACA_site634] | 10.4 |
| TTTTTGTTATTATGTGTGCACATATATATATATATA | 10.4 |
| TATGTTATTATTTGTACACACACATATATATCCTTG [CACACA_site5910] | 10.7 |
| AACAAATATCCCAAAAGTACACATATAAAAAAAAAA [XGTACX_site4126] | 9.79 |
| ATATATATATATATGGTGCATGAAAATTTACTTTGA | 9.66 |
| ATATACTCATTTAATACACACAAAGAGAAAATTAAT [CACACA_site1923] | 9.75 |
| GATATTTGTTCATATACACACTTTTGATAAAATATG [CACACA_site4807] | 9.71 |
| TTTTTTTTTTTTGGTAGTACATAATATTAATATAAT [XGTACX_site4422] | 9.5 |
| TATATTTTCCTGCAAACACACATATAAATGGGTAGA [CACACA_site4451] | 9.61 |
| TTTATATAATTTTTTTGTACATATATATGAATACAT [XGTACX_site2316] | 9.74 |
| TAATTTTTTTTTTTTTTTCATTCTTTTCCTTTGATT [CACACA_negctrl_site1365] | 9.22 |
| ATAGTACAACAGGTTCTTGACAAACAATATGAATGT [GTGCAC_negctrl_site442] | 9.78 |

| Sequence | gcPBM binding intensity (ln) |
| --- | --- |
| ACATATAAGATTATGTGTCCACAAAAAAATAAAACA [XGTACX_site2867] | 9.68 |
| TTTTTAATAACACTTTTGAAAAATAAAATAAAATAA [CACACA_negctrl_site821] | 9.1 |
| TTTTTTTATTATTCTTATATAAAAATTTTTTTTAAT [CACACA_negctrl_site159] | 9.32 |
| TTTTATGTTCTTAATGCACACTTATAAGTATCTTAT [CACACA_site4895] | 9.86 |
| CATATCTCAATTTATGCATGCAGGATTTTTCTAATA [TGCATGCA_site516] | 9.57 |
| TTTTTTTTTTTTTGGTGTACATTTATAAAAAAAAAA [XGTACX_site8368] | 9.19 |
| AATATGTACAGACATACACACATATATATATATATA [CACACA_site1222] | 10.1 |
| TGATCAAATAAGTTTGCATGTCAACAATGCATATAT [TGCATGCA_site1025] | 9.5 |
| GAATTCCTTTGTGTATGTACATAATGATATTATTTT [XGTACX_site7369] | 9.84 |
| CCCCTTGTGGATTCTACACACAAAAAGTCGTCAAAA [CACACA_site821] | 9.74 |
| TAATTTTTTAAACACACACACATATATATATATATA [CACACA_site4230] | 10 |
| TTATTCTTTTAATATACACACTTTGTCTTTTCGCGC [CACACA_site5525] | 9.9 |
| ATATATATAAAAGAAACAACATTTATTCAAAAGGTA [CACACA_negctrl_site749] | 9.72 |
| TTTTAAATTTAGTGTAGTACACTTTTTTCAAATATA [XGTACX_site4659] | 9.58 |
| TACTTTTATAAAAATTTTATCAAATTCTATATATGT [TGCATGCA_negctrl_site308] | 9.64 |
| ATATAATTCAAATACAGTACATATACAATATATACA [XGTACX_site1191] | 9.63 |
| AATAACAAAATAGGCACACGCACATATATATATATA [CACACA_site1497] | 9.98 |
| TATTTTTCTTTTTAAAAATATATCACATGAACATTA [XGTACX_negctrl_site183] | 9.39 |
| TACATATTTATATACACACACACACGGATATTTATA [CACACA_site7239] | 11 |

| Sequence | gcPBM binding intensity (ln) |
| --- | --- |
| GCACCCTGTATGAATGCACACATTCATAGAATTGCT [CACACA_site5475] | 9.81 |
| ATTCAAAAGATGTATACACACATGTGGATAATATAA [CACACA_site2443] | 9.92 |
| TAAACAAAAAGGAAGAGTACTTGTAAAATTTGTAAA [XGTACX_site3003] | 9.7 |
| ATATACATATCATGTAGTACAATTTTTTTACTTTTT [XGTACX_site7988] | 9.58 |
| CACTTTTTTTAAATGTGTACGTATATGAAAATATCA [XGTACX_site4854] | 9.43 |
| TAAAAAAATAAAATTACACACATATATAGATATATA [CACACA_site7273] | 9.74 |
| TTATATTTCTTGAAGGGTACATACCATTATTTTTAA [XGTACX_site1159] | 9.57 |
| ATATATTTATATATTACACACAATATTGGAGACATA [CACACA_site931] | 9.76 |
| AGAAAACTCGCTTTTCTAAATCTCAAAAAAAAAAAA [XGTACX_negctrl_site94] | 9.25 |
| ATACATATATTAGGATGTACGTTTATTTTAGTTATT [XGTACX_site7169] | 9.72 |
| ACAAAAAAAAATATGTTAACTATATATATATATATA [CACACA_negctrl_site346] | 9.65 |
| AATTGGGAACTGTAATGTACATATATTGAAAGTATA [XGTACX_site7081] | 9.65 |
| TATTTATTTGTACATATACACACTTAAATATGTTTA [CACACA_site3902] | 9.87 |
| TAATTAACCTATGCATTCATATAGATACATAAATAT [CACACA_negctrl_site885] | 9.5 |
| GTTTCTATTCACATTTTACACACGTCCATCGCATTT [CACACA_site9142] | 10.2 |
| TTTTGTTGTATGATAATTCTTTTATCAATATGTCTT [TGCATGCA_negctrl_site567] | 9.63 |
| ACCAAATTATCAAATGGTACACATAAAATAATAAAA [XGTACX_site865] | 9.68 |
| TACAAAAAATTATGGAGTACATATATAATATACAAT [XGTACX_site1004] | 9.57 |
